This is one part of the list. The full chains were built here from the parent and the listed change. Values near 0.05 are background.
B1: TEV protease; numbered along this chain (parent)
chain: MGESLFKGPRDYNPISSSICHLTNESDGHTTSLYGIGFGPFIITNKHLFRRNNGTLVVQSLHGVFKVKDTTTLQQHLVDGRDMIIIRMPKDFPPFPQKLKFREPQREERICLVTTNFQTKSMSSMVSDTSCTFPSGDGIFWKHWIQTKDGQCGSPLVSTRDGFIVGIHSASNFTNTNNYFTSVPKNFMELLTNQEAQQWVSGWRLNADSVLWGGHKVFMVKPEEPFQPVKEATQL

Variants of: B1
Experiment: raw area under fraction-flipped curve 0-4 h after induction (AUC4h, not background-subtracted), DNA-recorder readout of cleavage of the substrate (dimensionless); higher = more cleavage of the substrate by the protease variant
Settings: temperature: 34 °C; time window: 0-4 h after rhamnose induction
Description: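 In vivo DNA recorder in E. coli TOP10(DE3) ΔrhaA at 34 °C. Each TEVp single-site mutant (parent TEVp 0) is paired with a single-site variant of the 7-mer TEVs (canonical ENLYFQ|S). The substrate sits between flexible linkers in a Bxb1-sfGFP-TEVs-SsrA fusion, so cleavage stabilises Bxb1 and speeds flipping of a recombination array, read by NGS. The value is the raw area under the fraction-flipped curve over 0-4 h after rhamnose induction (AUC4h), with ≥20 reads per time point. It is not background-subtracted; inactive controls average about 0.047.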
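Further: Bxb1 expression induced with 0.2% (w/v) L-rhamnose at OD600 near 0.5, cultures sampled hourly, flipped fraction per protease–substrate barcode pair counted by paired-end Illumina sequencing.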

| Variant | area with substrate EALYFQS | area with substrate ECLYFQS | area with substrate EDLYFQS | area with substrate EGLYFQS | area with substrate EHLYFQS | area with substrate EILYFQS | area with substrate EKLYFQS | area with substrate ELLYFQS | area with substrate EPLYFQS | area with substrate EQLYFQS | area with substrate ERLYFQS | area with substrate ESLYFQS | area with substrate ETLYFQS | area with substrate EVLYFQS | area with substrate EWLYFQS | area with substrate EELYFQS | area with substrate EMLYFQS | area with substrate EYLYFQS | area with substrate EFLYFQS |
| --- | --- | --- | --- | --- | --- | --- | --- | --- | --- | --- | --- | --- | --- | --- | --- | --- | --- | --- | --- |
| S16R | 0.144 | 0.116 | 0.141 | 0.103 | 0.123 | 0.0976 | 0.128 | 0.0919 | 0.113 | 0.136 | 0.112 | 0.116 | 0.117 | 0.0722 | 0.0982 |  |  |  |  |
| S16T | 0.0885 | 0.0901 | 0.148 | 0.101 |  | 0.0931 | 0.144 | 0.101 | 0.135 |  | 0.137 | 0.0862 | 0.119 | 0.0938 | 0.0911 | 0.105 | 0.0917 | 0.0918 |  |
| S16V | 0.123 | 0.121 |  | 0.11 | 0.125 | 0.0942 | 0.0967 | 0.0708 | 0.121 | 0.143 | 0.0847 | 0.102 | 0.124 | 0.0984 | 0.0956 | 0.1 | 0.133 |  | 0.101 |
| S16Y | 0.12 | 0.107 |  | 0.0988 | 0.134 | 0.0763 | 0.0902 | 0.071 |  | 0.12 | 0.133 | 0.0869 |  |  |  | 0.107 |  | 0.127 |  |
| S17W | 0.129 | 0.0998 | 0.117 | 0.1 | 0.131 | 0.0942 | 0.112 | 0.12 | 0.0982 | 0.11 | 0.123 | 0.0877 | 0.101 | 0.0871 | 0.0688 | 0.12 |  | 0.119 | 0.0686 |
| S18C | 0.129 | 0.0926 | 0.127 |  | 0.086 | 0.147 | 0.105 | 0.107 | 0.103 | 0.126 | 0.13 | 0.104 |  | 0.0805 | 0.104 | 0.186 | 0.12 | 0.116 | 0.0629 |
| I19R | 0.0571 | 0.0499 | 0.0597 | 0.0578 | 0.056 | 0.0511 | 0.0707 | 0.0589 | 0.0607 | 0.0715 | 0.0655 | 0.0625 | 0.0408 | 0.0587 | 0.0586 | 0.059 | 0.0697 | 0.0409 | 0.056 |
| H21P | 0.0555 | 0.0416 | 0.0518 | 0.0627 |  | 0.0521 | 0.0526 | 0.0552 | 0.0561 | 0.0645 | 0.0462 | 0.0569 | 0.0424 | 0.0489 | 0.0505 | 0.0711 | 0.0447 | 0.0542 | 0.0602 |
| T23P | 0.0523 | 0.0488 | 0.0411 | 0.0372 | 0.12 | 0.0302 | 0.0401 | 0.0503 | 0.0364 | 0.0475 | 0.0751 | 0.0427 | 0.0486 | 0.0405 |  | 0.0514 | 0.036 | 0.0347 | 0.0464 |
| N24C | 0.105 | 0.0697 | 0.0804 | 0.0717 | 0.0796 | 0.0732 | 0.0881 | 0.0767 | 0.0919 | 0.0989 | 0.0702 | 0.0779 | 0.0769 | 0.0556 | 0.025 | 0.0961 |  | 0.0778 |  |
| N24D | 0.0727 | 0.0801 |  |  |  | 0.0575 | 0.0821 |  |  | 0.0905 | 0.0805 | 0.152 |  | 0.0593 | 0.0541 | 0.0781 | 0.108 | 0.0653 |  |
| N24H | 0.0872 |  | 0.109 | 0.0638 | 0.119 | 0.0832 | 0.0999 | 0.0731 |  | 0.0997 | 0.0675 | 0.0844 | 0.0822 | 0.0987 |  | 0.0695 |  | 0.0971 |  |
| N24Q | 0.0837 | 0.0956 | 0.11 |  | 0.109 | 0.0654 | 0.0866 |  |  | 0.106 | 0.113 | 0.0821 | 0.0904 | 0.0708 | 0.0935 |  | 0.096 |  | 0.0821 |
| N24T | 0.0807 | 0.0764 | 0.0912 | 0.0688 | 0.0579 | 0.071 |  | 0.0666 | 0.0836 | 0.0816 | 0.0547 | 0.0771 | 0.0805 |  | 0.0734 |  | 0.0737 |  |  |
| N24W | 0.0869 | 0.0781 | 0.0686 | 0.063 | 0.0772 | 0.079 |  | 0.0559 | 0.0885 | 0.101 | 0.0807 | 0.143 |  | 0.0768 |  | 0.0802 | 0.0677 | 0.0977 | 0.0828 |
| E25K | 0.172 | 0.115 | 0.122 | 0.0833 |  | 0.0833 | 0.0979 | 0.0852 | 0.0686 | 0.0308 | 0.0784 | 0.106 |  | 0.0895 | 0.0786 | 0.0646 | 0.103 | 0.0802 | 0.0664 |
| D27P | 0.0574 | 0.0039 | 0.095 |  | 0.11 |  | 0.091 | 0.0926 | 0.11 | 0.0831 | 0.0951 | 0.103 |  |  | 0.0821 | 0.11 | 0.0904 |  | 0.0729 |
| G28L | 0.102 | 0.0827 | 0.0853 |  | 0.118 | 0.0873 | 0.0812 |  |  | 0.0986 | 0.0975 | 0.0883 | 0.0746 | 0.0835 | 0.0815 | 0.0974 | 0.0864 | 0.0982 | 0.0844 |
| G28T | 0.118 | 0.0869 | 0.0969 | 0.0856 | 0.114 | 0.0792 | 0.1 | 0.0687 | 0.11 | 0.0242 | 0.0844 | 0.0961 |  | 0.0797 |  | 0.127 | 0.0958 |  | 0.0725 |
| T30C | 0.111 | 0.113 | 0.129 | 0.0936 |  | 0.0977 | 0.109 | 0.0909 | 0.14 | 0.125 | 0.113 | 0.102 | 0.111 | 0.111 | 0.106 | 0.103 | 0.107 | 0.1 | 0.137 |
| T30S | 0.0909 | 0.125 | 0.106 | 0.09 | 0.114 | 0.0942 | 0.118 | 0.0852 |  | 0.127 | 0.128 | 0.119 | 0.117 | 0.112 |  | 0.0779 | 0.136 | 0.113 | 0.103 |
| T31E | 0.0937 | 0.108 | 0.0999 |  | 0.0875 | 0.0959 |  | 0.105 | 0.0867 | 0.0785 | 0.0813 | 0.0898 | 0.0992 | 0.0896 |  | 0.11 |  | 0.0939 | 0.0969 |

From the supplement of paper PMC12217912
